Structures are written as SMILES. Some of the results follow.

We go through 29 compounds from the antibiotic and cytotoxicity screens of Wong et al. (2023).

One assay deals with HSkMC. In words: cytotoxicity call (relative viability < 0.9). To be noted: 10 µM.
For another assay, the system named is S. aureus RN4220. Description: growth inhibition call (relative growth <= 0.2). To be noted: 50 µM.

Regarding `C[C@H]1COC(=O)[C@@H](Cc2ccc(F)cc2)CC=CC[C@@H](CC(=O)N[C@H](CO)Cc2ccccc2)C(=O)N1`, the cytotoxicity call in the assay with HSkMC was “inactive”. For the same compound, in the assay with S. aureus RN4220, the growth inhibition call is “inactive”.
In the case of `C=C(C)C1CCC2(C)CCC3(C)C(CCC4C5(C)CCC(O)C(C)(C)C5CCC43C)C12` (stereo not drawn), the cytotoxicity call with HSkMC is “inactive”. The growth inhibition call with S. aureus RN4220 is “inactive”.
On to `Cc1noc(C)c1S(=O)(=O)Nc1ccc2c(c1)C(=O)N([C@H](C)CO)C[C@@H](C)[C@H](CN(C)C)OCCCC[C@@H](C)O2`, for which the cytotoxicity call in the assay on HSkMC was “inactive”. In addition, the growth inhibition call in the assay with S. aureus RN4220 was “inactive”.
Turning to `CNC[C@H]1OCCCC[C@H](C)Oc2ccc(NC(=O)c3ccncc3)cc2C(=O)N([C@H](C)CO)C[C@@H]1C`, the cytotoxicity call in the assay on HSkMC is “inactive”. For the same compound, the growth inhibition call in the assay on S. aureus RN4220 is “inactive”.
For the compound `C[C@H](CO)N1C[C@H](C)[C@@H](CN(C)C(=O)Nc2cccc(F)c2)OCc2ccccc2-c2ccccc2C1=O`, in the assay on HSkMC, the cytotoxicity call was “inactive”. Also, in the assay on S. aureus RN4220, the growth inhibition call was “inactive”.
Consider `CC(C)(c1cc(Br)c(O)c(Br)c1)c1cc(Br)c(O)c(Br)c1`, for which the cytotoxicity call in the assay with HSkMC was “inactive”. In the assay with S. aureus RN4220, the growth inhibition call is “active”.
For `COc1ccc(CN(C)C[C@H]2Oc3ccc(NC(=O)Nc4cccc5ccccc45)cc3C(=O)N([C@H](C)CO)C[C@H]2C)cc1`, in that order: “inactive” and “inactive”.
The corresponding values for `O=C(C[C@H]1C[C@@H]2c3cc(NS(=O)(=O)c4ccc(F)cc4)ccc3O[C@@H]2[C@H](CO)O1)NCc1ccc(Oc2ccccc2)cc1` are “inactive” and “inactive”.
For `CC(C)(C)NC(=O)[C@@H]1CN(Cc2cccnc2)CCN1C[C@@H](O)C[C@@H](Cc1ccccc1)C(=O)N[C@H]1c2ccccc2C[C@H]1O`, in that order: “inactive” and “inactive”.
With `Nc1ccccc1C(=O)N1CCOCC1`, the cytotoxicity call with HSkMC was “inactive”. Also, in the assay with S. aureus RN4220, the growth inhibition call is “inactive”.
Take `CC(C)NC(=O)Nc1ccc2c(c1)CC(=O)N([C@H](C)CO)C[C@H](C)[C@@H](CN(C)S(=O)(=O)c1cn(C)cn1)O2`: the cytotoxicity call in the assay with HSkMC was “inactive”. Moreover, the growth inhibition call in the assay on S. aureus RN4220 was “inactive”.
`C[C@H](CO)N1C[C@H](C)[C@H](CN(C)C(=O)Nc2cccc3ccccc23)Oc2ccc(NC(=O)NC3CCCCC3)cc2CC1=O`: in the assay on HSkMC, the cytotoxicity call was “inactive”. Moreover, the growth inhibition call in the assay on S. aureus RN4220 was “inactive”.
Regarding `Cc1cc(-c2ccccc2)oc2cc3ccccc3c1-2`, in the assay with HSkMC, the cytotoxicity call is “inactive”. Further, the growth inhibition call in the assay with S. aureus RN4220 is “inactive”.
With `C[C@@H]1CN([C@H](C)CO)C(=O)c2cc(-c3ccc(C(=O)N(C)C)cc3)cnc2O[C@@H]1CN(C)C(=O)CN(C)C`, in the assay with HSkMC, the cytotoxicity call is “inactive”. Besides, the growth inhibition call with S. aureus RN4220 was “inactive”.
For the compound `C[C@H](CCC(=O)NCCS(=O)(=O)O)[C@H]1CC[C@H]2[C@@H]3[C@H](O)C[C@@H]4C[C@H](O)CC[C@]4(C)[C@H]3C[C@H](O)[C@]12C`, the cytotoxicity call in the assay on HSkMC was “inactive”. For the same compound, the growth inhibition call in the assay with S. aureus RN4220 is “inactive”.
In the case of `COc1ccc(NC(=O)Nc2cccc3c2O[C@@H](CN(C)Cc2ccc(C(F)(F)F)cc2)[C@@H](C)CN([C@@H](C)CO)C3=O)cc1`, in the assay on HSkMC, the cytotoxicity call is “inactive”. Moreover, in the assay with S. aureus RN4220, the growth inhibition call is “inactive”.
`C[C@@H]1CCCCO[C@H](CN(C)S(=O)(=O)c2ccccc2)[C@@H](C)CN([C@@H](C)CO)C(=O)c2cc(NC(=O)Nc3cccc4ccccc34)ccc2O1`: in the assay with HSkMC, the cytotoxicity call was “inactive”. Moreover, the growth inhibition call in the assay with S. aureus RN4220 was “inactive”.
In the case of `O=C(C[C@@H]1C=C[C@H](NS(=O)(=O)c2ccc(F)cc2)[C@@H](CO)O1)N1CCC(Cc2ccccc2)CC1`, the cytotoxicity call in the assay with HSkMC is “inactive”. Also, in the assay with S. aureus RN4220, the growth inhibition call was “inactive”.
With `NC(=O)[C@@H]1[C@H]2C(=O)O[C@H](c3ccccc3)[C@H](c3ccccc3)N2[C@H](c2ccc(OCCO)cc2)[C@@]12C(=O)Nc1ccc(C#CC3=CCCCC3)cc12`, the cytotoxicity call with HSkMC was “inactive”. Moreover, the growth inhibition call with S. aureus RN4220 is “inactive”.
As for `COc1ccc(S(=O)(=O)Nc2ccc3c(c2)C(=O)N([C@@H](C)CO)C[C@@H](C)[C@H](CN(C)Cc2ccc(-c4ccccc4)cc2)O3)cc1`, in the assay with HSkMC, the cytotoxicity call was “active”. Moreover, the growth inhibition call with S. aureus RN4220 was “inactive”.
The corresponding values for `CC(C)NC(=O)Cn1ccc([N+](=O)[O-])n1` are “inactive” and “inactive”.
For the compound `C[C@@H]1CN([C@@H](C)CO)C(=O)Cc2cc(NC(=O)Cc3ccccc3)ccc2O[C@H]1CN(C)C(=O)Nc1ccc(C(F)(F)F)cc1`, in the assay with HSkMC, the cytotoxicity call was “inactive”. The growth inhibition call in the assay on S. aureus RN4220 was “inactive”.
Take `Cc1ncsc1-c1ccc(CNC(=O)[C@@H]2C[C@@H](O)CN2C(=O)[C@H](C(C)C)N2Cc3ccccc3C2=O)cc1`: in the assay on HSkMC, the cytotoxicity call is “inactive”. Further, the growth inhibition call with S. aureus RN4220 was “inactive”.
Consider `C[C@@H]1CN([C@@H](C)CO)C(=O)Cc2cc(NC(=O)CCCN(C)C)ccc2O[C@@H]1CN(C)S(=O)(=O)c1ccc(Cl)cc1`, for which, in the assay with HSkMC, the cytotoxicity call is “inactive”. Also, the growth inhibition call in the assay with S. aureus RN4220 is “inactive”.
For `COc1cccc(S(=O)(=O)N2C[C@H](O)COC[C@@H]3O[C@H](CC(=O)N4CCN(C)CC4)CC[C@H]32)c1`, in the assay on HSkMC (human skeletal muscle cells), the cytotoxicity call is “inactive”. The growth inhibition call in the assay on S. aureus RN4220 is “inactive”.
Regarding `O=C([C@@H]1N[C@@H]2c3ccc(-c4ccc(F)cc4)c(=O)n3C[C@@H]2[C@H]1CO)N1CCOCC1`, the cytotoxicity call with HSkMC was “inactive”. In the assay with S. aureus RN4220, the growth inhibition call is “inactive”.
For `Cc1noc(C)c1NC(=O)Nc1ccc2c(c1)C(=O)N([C@H](C)CO)C[C@H](C)[C@H](CN(C)C(=O)C1CCCCC1)OCCCC[C@H](C)O2`, in the assay with HSkMC, the cytotoxicity call was “inactive”. Besides, the growth inhibition call with S. aureus RN4220 was “inactive”.
As for `C[C@H]1CN([C@@H](C)CO)C(=O)Cc2cc(NS(=O)(=O)c3cccs3)ccc2O[C@H]1CN(C)Cc1ccc(Oc2ccccc2)cc1`, the cytotoxicity call in the assay with HSkMC was “inactive”. Further, the growth inhibition call in the assay with S. aureus RN4220 is “inactive”.
As to `C[C@@H]1CCCCO[C@@H](CN(C)Cc2ccncc2)[C@@H](C)CN([C@H](C)CO)C(=O)c2cc(NC(=O)C3CCCCC3)ccc2O1`, the cytotoxicity call with HSkMC is “inactive”. The growth inhibition call with S. aureus RN4220 is “inactive”.
